Data reported in PubChem BioAssay AID2675 (National Center for Advancing Translational Sciences (NCATS), 2010).
Among all 280,000 compounds or so, about 100 (0.036%) were called active. Inconclusive means that the source gave no clear call. Such entries were picked first, then a sample of the others. Calls come from the whole dose curve; as a rule, active = well fitted inhibition curve with a large enough effect in the signal ratio, with a control signal flat (not every such curve was filed as active); inconclusive = small, poorly fitted or top-dose-only effect, or effect the other way, or a change in a side signal; inactive = no such curve, though single readings can be large or run the other way; the % refers to the signal ratio. Potencies beside an inconclusive call are fits to weak or partial responses and may not hold up. A note “side channel” means that the fit belongs to a control or component signal, not to the main read-out.

Target: Muscleblind-like protein 1 (Homo sapiens) (UniProt Q9NR56)
Chain of UniProt Q9NR56 (Q9NR56 whole entry, looked up): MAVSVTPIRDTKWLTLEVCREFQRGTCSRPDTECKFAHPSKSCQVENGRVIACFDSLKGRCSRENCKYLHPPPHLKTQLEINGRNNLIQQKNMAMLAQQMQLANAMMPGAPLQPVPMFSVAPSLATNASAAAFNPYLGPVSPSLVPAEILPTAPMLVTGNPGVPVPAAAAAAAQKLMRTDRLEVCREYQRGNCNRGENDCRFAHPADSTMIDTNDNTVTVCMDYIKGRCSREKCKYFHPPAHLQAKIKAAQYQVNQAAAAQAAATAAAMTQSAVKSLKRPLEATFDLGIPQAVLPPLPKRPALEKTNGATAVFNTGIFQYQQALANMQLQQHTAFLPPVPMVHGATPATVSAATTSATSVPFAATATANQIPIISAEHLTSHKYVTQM
Experiment: qHTS Assay for Inhibitors of MBNL1-poly(CUG) RNA binding
Settings: TR-FRET MBNL1-His/biotin-(CUG)12 binding, 665/545 ratio; series mostly up to 57.5 µM
Method in brief: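 MBNL1-His + Biotin-(CUG)12, cpd titration 92 nM–58 uM; Tb anti-His Ab 0.055 ng/ul, SA-XL665 5 nM (final); 60 min RT; ratiometric 665/545 nm, Ex 340 nm; normalized to buffer and full-complex controls.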
Potency is the fitted concentration of half-maximal effect; tags give direction and shape of the fitted curve or compound fluorescence and quenching.

SMILES	Potency
Nc1ccc(S(=O)(=O)c2cccc(N)c2)cc1	inconclusive: 31.6 µM [quencher, side channel, partial curve]
FC(F)(F)c1cccnc1N1CCN(c2ncnc3nc[nH]c23)CC1	inconclusive: 8.91 µM [quencher, side channel, single point]
Nc1ccc(-c2cnc(-c3ccc(N)cc3)nc2)cc1	inconclusive: 14.1 µM [quencher, side channel, single point]
CCONc1ncnc2nonc12	inconclusive: 25.1 µM [quencher, side channel, single point]
N#C/C(=C\c1c[nH]c2ccccc12)c1nnc2n1CCCCC2	inconclusive: 20 µM [quencher, side channel, partial curve]
O=C(CN1CCOCC1)Nc1nc2cc([N+](=O)[O-])ccc2s1	inconclusive: 1.78 µM [quencher, side channel, partial curve]
CCOc1ccccc1NC(=O)N1CCCC(c2nc(-c3ccc(C)o3)no2)C1 (stereo unspecified)	inconclusive: 15.8 µM [quencher, side channel, partial curve]
CCc1nnc(NS(=O)(=O)c2ccc(Nc3ccc([N+](=O)[O-])c4nonc34)cc2)s1	inconclusive: 12.6 µM [quencher, side channel, partial curve]
O=[N+]([O-])c1cc(C(F)(F)F)cc([N+](=O)[O-])c1NCCCN1CCOCC1	inconclusive: 15.8 µM [quencher, side channel, partial curve]
O=S(=O)(c1cccc(Br)c1)N1CCN(c2ccnc3cc(Cl)ccc23)CC1	inactive
CN1C(=O)/C(=C/c2cccc(Cl)c2)Sc2ccc(C(=O)N3CCOCC3)cc21	inconclusive: 22.4 µM [quencher, side channel, partial curve]
O=C1Nc2ccc(NS(=O)(=O)c3cccs3)c3cccc1c23	inconclusive: 22.4 µM [quencher, side channel, partial curve]
C=CCc1cccc2cc(C(=O)NCc3cccnc3)c(=O)oc12	inconclusive: 17.8 µM [quencher, side channel, partial curve]
O=C1c2ccccc2C(=O)N1OCc1ccccc1[N+](=O)[O-]	inconclusive: 12.6 µM [quencher, side channel, partial curve]
COc1cc(/C=N/NC(=O)c2cccc3ccccc23)cc(OC)c1O	inconclusive: 28.2 µM [quencher, side channel, single point]
CCCC(=O)OCCNc1cc(SCCC(=O)OC)c2nonc2c1[N+](=O)[O-]	inconclusive: 3.55 µM [quencher, side channel, full curve]
Cc1cc(C)c(NC(=O)c2ccc3c(c2)C(=O)N(Cc2cccnc2)C3=O)c(C)c1	inconclusive: 6.31 µM [quencher, side channel, partial curve]
O=[N+]([O-])c1ccc(C[n+]2cccc3ccccc32)cc1	inconclusive: 11.2 µM [quencher, side channel, partial curve]

SMILES	Potency
C[n+]1ccc(C(=O)NCCC[N+](C)(C)C)cc1/C=N/O	inconclusive: 10 µM [quencher, side channel, partial curve]
CC[C@H](C)C(C(=O)N1CCN(C(=O)OC(C)(C)C)CC1)n1cc(C(CC(C)C)NC(=O)OC(C)(C)C)nn1 (stereo partly specified)	inactive
CCOc1ccc(C(=O)Nc2ccc(N3CCN(C(C)=O)CC3)cc2)cc1[N+](=O)[O-]	inconclusive: 14.1 µM [quencher, side channel, partial curve]
O=C(O)CCCN1C(=O)/C(=C/C=C/c2ccco2)SC1=S	inconclusive: 28.2 µM [quencher, partial curve]
O=C(NNS(=O)(=O)c1ccc(F)cc1)c1ccc([N+](=O)[O-])cc1	inconclusive: 15.8 µM [quencher, side channel, partial curve]
Cc1noc(NS(=O)(=O)c2ccc(N/C=C\C(=O)c3ccncc3)cc2)c1C	inconclusive: 17.8 µM [quencher, side channel, partial curve]
CCOC(=O)c1sc2ncnc(N3CCN(C)CC3)c2c1C	inconclusive: 28.2 µM [quencher, side channel, partial curve]
C[C@@H]1O[C@@H](Oc2c(-c3cc(O)c(O)c(O)c3)oc3cc(O)cc(O)c3c2=O)[C@H](O)[C@H](O)[C@H]1O	inconclusive: 12.6 µM [quencher, side channel, partial curve, poor fit]
Cc1ccc(CN2CCNC(=O)C2CC(=O)O)cc1 (stereo unspecified)	inconclusive: 0.126 µM [quencher, side channel, full curve, poor fit]
CCOC(=O)c1ccc(NC(=O)c2cccc(C)c2[N+](=O)[O-])cc1	inactive
O=c1oc2ccccc2cc1-c1cn2ccccc2n1	inconclusive: 3.55 µM [quencher, side channel, full curve]
CCCNC(=O)c1ccccc1NC(=O)c1ccccc1N(C)S(C)(=O)=O	inconclusive: 79.4 µM [inhibitor, partial curve]
Cn1c(-c2ccc([N+](=O)[O-])cc2)nc2ccccc21	inconclusive: 2.51 µM [quencher, side channel, full curve]
O=[N+]([O-])c1ccc(N2CCN(c3ccccc3)CC2)nc1	inactive
CCCn1c(SCC(=O)Nc2ccccc2N2CCOCC2)nc2c1c(=O)n(C)c(=O)n2C	inconclusive: 39.8 µM [inhibitor, single point]
Cn1c(=O)c2ncn(CC(=O)N/N=C/C=C/c3ccccc3)c2n(C)c1=O	inconclusive: 25.1 µM [quencher, side channel, partial curve]
O=C(NCCc1ccccc1)c1ccc2c(=O)[nH]c3c(C(=O)NCC4CCCO4)sc(=S)n3c2c1 (stereo unspecified)	inactive
O=C(Nc1ccncc1)c1ccccc1[N+](=O)[O-]	inconclusive: 22.4 µM [quencher, single point]
